# Source: publication PMC4336329 (PLoS ONE, 2015)
# Out of some 310,000 compounds screened, about 2,200 (0.71%) showed an effect of 50% or more. The effect is printed as a negative number. This is one part of the list.
# Target: human ether-à-go-go-related gene (hERG) potassium channel (human, UniProt Q12809)
# Assay: primary screen, population patch clamp on CHO cells stably expressing hERG
# human ether-à-go-go-related gene (hERG) potassium channel, sequence (Q12809 whole entry, looked up): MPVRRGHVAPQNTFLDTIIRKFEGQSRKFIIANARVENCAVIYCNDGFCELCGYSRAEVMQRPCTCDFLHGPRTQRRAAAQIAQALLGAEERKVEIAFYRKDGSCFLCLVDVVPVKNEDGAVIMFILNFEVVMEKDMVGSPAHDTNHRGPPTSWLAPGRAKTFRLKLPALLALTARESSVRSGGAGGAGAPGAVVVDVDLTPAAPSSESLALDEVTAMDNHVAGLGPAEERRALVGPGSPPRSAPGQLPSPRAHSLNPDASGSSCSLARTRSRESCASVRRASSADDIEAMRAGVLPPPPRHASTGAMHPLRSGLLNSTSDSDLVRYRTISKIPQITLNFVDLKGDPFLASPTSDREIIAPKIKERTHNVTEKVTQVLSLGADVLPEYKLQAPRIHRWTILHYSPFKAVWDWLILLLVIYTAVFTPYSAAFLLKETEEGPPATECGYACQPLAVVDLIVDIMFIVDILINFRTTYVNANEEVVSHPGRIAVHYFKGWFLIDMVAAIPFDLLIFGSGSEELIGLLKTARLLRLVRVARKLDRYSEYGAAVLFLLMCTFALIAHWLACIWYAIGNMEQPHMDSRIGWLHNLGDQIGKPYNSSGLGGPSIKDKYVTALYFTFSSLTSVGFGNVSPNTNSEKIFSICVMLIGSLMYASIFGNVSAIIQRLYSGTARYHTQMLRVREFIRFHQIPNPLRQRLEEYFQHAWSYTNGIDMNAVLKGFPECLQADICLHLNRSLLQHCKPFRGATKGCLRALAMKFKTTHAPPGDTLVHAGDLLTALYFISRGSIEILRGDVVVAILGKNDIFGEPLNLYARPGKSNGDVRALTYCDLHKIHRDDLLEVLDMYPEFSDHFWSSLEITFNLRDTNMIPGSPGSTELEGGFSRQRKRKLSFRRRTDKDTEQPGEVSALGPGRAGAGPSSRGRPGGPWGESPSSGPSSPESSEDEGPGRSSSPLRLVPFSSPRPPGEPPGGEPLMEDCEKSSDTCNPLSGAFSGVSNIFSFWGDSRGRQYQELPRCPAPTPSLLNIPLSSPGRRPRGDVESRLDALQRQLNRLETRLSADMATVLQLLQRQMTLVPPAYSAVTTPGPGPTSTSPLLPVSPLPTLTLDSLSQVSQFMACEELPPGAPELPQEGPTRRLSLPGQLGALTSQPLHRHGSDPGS
row,SMILES,"hERG current change (%, negative = inhibition) at 1uM"
1,COc1cc(Br)c(Br)cc1N,12.4%
2,Cc1ccc(Cn2c(-c3nonc3N)nc3ccccc32)cc1,9.1%
3,CCCCNC(=O)COC(=O)c1ccc(NC(C)=O)cc1,4.05%
4,CCN(CC(=O)Nc1ccc2c(c1)OCCO2)C(=O)/C=C/c1ccc(F)cc1,16.8%
5,Cc1cc(C(=O)NNC(=O)c2ccc(C)s2)c(C)o1,4.08%
6,Cc1cc(O)c(Sc2ccc(Cl)cc2)c(=O)[nH]1,18.7%
7,COc1ccc(CCNC(=O)c2ccc(CNS(=O)(=O)c3ccccc3)cc2)cc1OC,8.47%
8,C=CCCCCCCCCC(=O)Nc1ncccn1,16.1%
9,CCCn1c2ccccc2c2cnn(CC(=O)NC3CCCC(C)C3C)c(=O)c21 (stereo not drawn),11.4%
10,Cc1ccc(C(=O)Nc2nc(=O)n(C)s2)cc1,22.3%
11,CCOC(=O)C1CCN(S(=O)(=O)c2cccc(-c3cn4ccccc4n3)c2)CC1,-9.7%
12,COc1ccc(NS(=O)(=O)c2cc(-c3cnc(C4CC4)o3)ccc2C)cc1,10.7%
13,Cc1cc(Cl)ccc1NC(=S)NCC(O)c1ccccc1 (stereo not drawn),10.6%
14,NC(=O)C1CCN(C(=O)CN2CCc3ccccc32)CC1,9.07%
15,Cc1ccccc1OCCCSc1nc2ccccc2[nH]1,17.2%
16,C=CCNC(=O)C1=NN(c2c(F)c(F)cc(F)c2F)C(=O)CC1,21.6%
17,Cc1ccc(C(=O)C2=C(O)C(=O)N(c3ncccn3)C2c2ccc(Cl)cc2)o1 (stereo not drawn),7.92%
18,COc1ccccc1CN(Cc1cc2cc3c(cc2[nH]c1=O)OCCO3)Cc1nnnn1Cc1ccco1,11.5%
19,COc1ccc(S(=O)(=O)NCC2CCCN(Cc3ccccc3C)C2)cc1 (stereo not drawn),-12.4%
20,CC1CCCN(c2nc3c(c(=O)[nH]c(=O)n3C)n2CCCc2ccccc2)C1 (stereo not drawn),-19.5%
21,Cc1cc(SCc2cccc([N+](=O)[O-])c2)nc(=O)[nH]1,21.6%
22,[O-][N+]1=C(c2cccs2)CN(O)C1,10.3%
23,O=C(Nc1nc2c(Br)cccc2s1)C1CC1,6.57%

row,SMILES,"hERG current change (%, negative = inhibition) at 1uM"
1,COCCCn1c(=O)c2sccc2n2c(CCCC(=O)NCc3ccc(F)cc3)nnc12,11.4%
2,CCCN(CC(=O)Nc1ccc(F)c(F)c1F)Cc1cc(=O)n2ccsc2n1,-17.8%
3,CSc1sc(C(=O)NNC(=O)c2ccc(Cl)cc2)c2c1C=CCC2,12.1%
4,O=C(O)CCCCCNC(=O)c1ccncc1,-3.96%
5,O=C(CCCc1c[nH]c2ccccc12)NCc1cccs1,21.4%
6,O=C(CSc1nc(-c2ccco2)cc(C(F)(F)F)n1)NCCc1ccccc1,5.96%
7,Cc1cc(C)c(S(=O)(=O)c2ccccc2)c(N2CCOCC2)n1,12.2%
8,CCC(C)NCC(=O)Nc1sc2c(c1C(N)=O)CCC2 (stereo not drawn),9.8%
9,COc1ccc(CN(C(=O)Cc2cccs2)C(C(=O)NC2CCCC2)c2ccncc2)cc1 (stereo not drawn),6.72%
10,O=C(Nc1ccc(F)c([N+](=O)[O-])c1)c1cccs1,5.25%
11,CCn1c(CCC(N)=O)nnc1SCC(=O)Nc1cccc(S(=O)(=O)N2CCCC2)c1,-5.71%
12,C=CCOc1ccc(S(C)(=O)=O)cc1,6.2%
13,CC1=C(C(=O)Nc2ccc(C)cc2C)C(c2cccc(Cl)c2)n2nc(C(=O)OC(C)C)nc2N1 (stereo not drawn),-1.89%
14,Cc1ccccc1-c1nc(CN2CCCC(C(=O)NCCCN3CCOCC3)C2)c(C)o1 (stereo not drawn),1.58%
15,Cc1ccc(CN(Cc2ccco2)C(=S)NCC(=O)NCc2cccnc2)cc1,6.08%
16,CCOc1ccc(NC(=S)N2CCC(NC(=O)c3ccccc3C)CC2)cc1,6.67%
17,COCC(=O)Nc1nnc(COc2ccc(Cl)cc2)s1,3.99%
18,CCOC(=O)CN1C(=O)C(C)(C)Oc2ccc(C(=O)Nc3ccccc3)cc21,2.32%
19,CCCCn1cnc2c(cnn2-c2ccc(Cl)cc2)c1=O,2.43%
20,Cc1ccc(NC(=O)c2cccc(N3C(=O)C4C5C=CC(C5)C4C3=O)c2)cc1C (stereo not drawn),6.94%
21,CCc1ccc(CN2CCCC(C(=O)c3sccc3C)C2)o1 (stereo not drawn),1.88%
22,Cc1ccc(-n2ncc3c2CCCC3NC(=O)CCc2c(C)noc2C)cc1C (stereo not drawn),7.03%
23,O=C(NCCC1CCCCN1S(=O)(=O)c1ccc(F)cc1)C(=O)NCC1CCCO1 (stereo not drawn),2.16%

row,SMILES,"hERG current change (%, negative = inhibition) at 1uM"
1,CC(=O)N1CCN(C(=O)c2ccc(Cl)c(NC(=O)c3cccs3)c2)CC1,0.959%
2,CCCN(CCC)C(=O)c1cn(C)c2ccc(S(=O)(=O)N3CCCC3)cc2c1=O,13.4%
3,O=C(Cn1cc(C(=O)c2ccco2)c2ccccc21)NC1CCCC1,12%
4,CCOC(=O)C1CCN(Cc2ccc(F)c(Br)c2)CC1,2.48%
5,O=C(CCCc1nc2ccccc2s1)NNC(=O)CCN1CCN(Cc2ccccc2)CC1,-2.98%
6,O=C(NC1CCS(=O)(=O)C1)C12CC3CC(CC(C3)C1)C2 (stereo not drawn),12.3%
7,CCS(=O)(=O)N1CCC(C(=O)NC2CCCCC2)CC1,6.24%
8,O=C(NC1CCCC1)c1cnn2c(C(F)(F)F)cc(-c3ccc4c(c3)OCO4)nc12,3.52%
9,O=C(Nc1ccon1)c1ccccc1F,6.98%
10,COc1ccc(-c2nc3ccc(C(=O)NCC(OC)OC)cc3nc2-c2ccc(OC)c(OC)c2)cc1OC,8.94%
11,CNC(=O)c1ccc(NC(=O)c2ccc3c(=O)n4c(nc3c2)CCC4)cc1,13.5%
12,Cc1ccc(C2CC(=O)C(C=NCCN3CCN(C(=O)Cc4ccccc4)CC3)=C(O)C2)cc1 (stereo not drawn),1.09%
13,O=C(NCCCN1CCCC1=O)c1c(O)nc2sccn2c1=O,8.35%
14,COc1ccc(C(=O)N/N=C(\N)c2cc3ccccc3oc2=O)cc1,21.4%
15,CCOc1ccc2nc(NC(=O)C3CSC4(C)CCC(=O)N34)sc2c1 (stereo not drawn),6.89%
16,O=C1CC(N2CCN(c3ccccc3)CC2)C(=O)N1c1ccc2c(c1)OCCO2 (stereo not drawn),8.82%
17,Cc1ccc(C(=O)N/C(=C\C=C\c2ccccc2)C(=O)NCc2ccco2)cc1,-10.3%
18,CC1CCN(C(=O)C(C)c2ccc([N+](=O)[O-])cc2)CC1 (stereo not drawn),4.58%
19,CSc1ccccc1N=CC1=C(O)CC(C)(C)CC1=O,6.67%
20,CC(C)c1cc(C(=O)Nc2ccc3c(c2)OCO3)no1,-0.0039%
21,CCOC(=O)c1c(C)c(C(=O)N2CCN(c3ccc(F)cc3)CC2)c(C)n1C,-4.72%
22,CC(=O)OCc1c(F)c(F)c(-n2nc(C)cc2C)c(F)c1F,7.43%
23,CCOc1ccc(NC(=O)CCC(=O)N/N=C2\CCCc3ccccc32)cc1,0.86%

row,SMILES,"hERG current change (%, negative = inhibition) at 1uM"
1,O=C(Cn1c(NCCO)nc2ccccc21)NCC1CCCO1 (stereo not drawn),14.7%
2,COc1ccccc1N(CC(=O)N/N=C/c1ccc(C(=O)O)cc1)S(=O)(=O)c1ccc(C)cc1,17.9%
3,CCOC(=O)c1nc(Nc2ccc(N3CCOCC3)cc2)c2ccccc2n1,15.1%
4,Cc1cccc(C)c1NC(=O)CSc1nnc(-c2ccoc2C)n1CCc1ccccc1,-14.6%
5,Cn1c(=O)c2c(nc(SCC(=O)N3CCc4ccccc4C3)n2C)n(C)c1=O,6.99%
6,COc1cc(NC(=S)NCCCN(C)C)c(OC)cc1NC(=O)c1ccco1,7.72%
7,CN(C)c1ccc(N2C(=NC(=O)CCc3ccccc3)SC3CS(=O)(=O)CC32)cc1 (stereo not drawn),-4.33%
8,O=C(Cn1c(=O)c2cccn2c2ccccc21)Nc1cc(F)ccc1F,17.4%
9,CCCNC(=O)c1cc2c(C(F)(F)F)nn(C)c2s1,16.2%
10,O=C(c1ccco1)N(Cc1ccc([N+](=O)[O-])cc1)c1ccc(Cl)cc1,6.74%
11,CCOC(=O)/C(C#N)=C/c1cn(CCC(=O)O)nc1-c1ccc(Br)cc1,15.8%
12,O=C(O)c1ccc(CNC(=O)c2ccc(Br)o2)cc1,1.01%
13,CCC(=O)c1ccccc1OCCCN1CCC(Cc2ccccc2)CC1.O=C(O)C(=O)O,-87%
14,Cc1[nH]c2ccc(C(=O)OC(C)C(=O)NCc3ccccc3)cc2c1C (stereo not drawn),11.1%
15,O=C(N/N=C/c1cccc([N+](=O)[O-])c1)C1COc2ccccc2O1 (stereo not drawn),4.07%
16,CC(C)CC(=O)N1CCN(Cc2ccccc2Br)CC1,2.66%
17,O=C(c1ccccc1)N1CCC(=O)N(C(CO)Cc2ccccc2)CC1 (stereo not drawn),4.6%
18,COc1ccc(-c2cnc(OC(C)(C)C)nc2OC(C)(C)C)cc1OC,12.6%
19,Cc1ccc(S(=O)(=O)N2CCc3ccccc3C2)cc1,12.2%
20,C=CCN1CCN(c2ccncc2S(=O)(=O)N2CCOCC2)CC1,-0.975%
21,C/C(=N\Nc1cc(Cl)nc(C)n1)c1ccccc1,2.08%
